Each value is the number of isolates with that result; steps that no isolate showed are left empty. MIC of clinical M. tuberculosis isolates from a national drug-resistance survey, broth microdilution on MYCOTB, UKMYC5 or UKMYC6 plates (ranges differ by plate), read after 10-21 days; higher = less susceptible. Call: the paper's susceptible [S] / resistant [R] by the drug's critical concentration (it differs by plate for some drugs); calls for ofloxacin and levofloxacin are not shown. MYCOTB plates carry ofloxacin; the paper halves those MICs to stand for levofloxacin, and they are doubled back here. The top step of a plate is printed with and without '>' in the source and is marked '>=' when plain; the plain lowest step of rifampicin and kanamycin on MYCOTB is marked '<='. Isolates that the source marks as part of the WHO data set are not listed here.
Tests used:
Assay in all cases: Isolates counted by MIC; Broth microdilution on commercial drug-susceptibility plates, read by two operators.
[1] = tested on: Mycobacterium tuberculosis lineage 4 on plate UKMYC5 (155 isolates)
[2] = tested on: Mycobacterium tuberculosis lineage 2 on plate UKMYC5 (530 isolates)
[3] = tested on: Mycobacterium tuberculosis lineage 3 on plate UKMYC6 (383 isolates)
[4] = tested on: Mycobacterium tuberculosis lineage 2 on plate UKMYC6 (1562 isolates)
[5] = tested on: Mycobacterium tuberculosis lineage 4 on plate UKMYC6 (615 isolates)
[6] = tested on: Mycobacterium tuberculosis lineage 2 on plate UKMYC6 (1561 isolates)
[7] = tested on: Mycobacterium tuberculosis lineage 2 on plate MYCOTB (3815 isolates)
[8] = tested on: Mycobacterium tuberculosis lineage 1 on plate MYCOTB (31 isolates)
[9] = tested on: Mycobacterium tuberculosis lineage 4 on plate MYCOTB (1613 isolates)
[10] = tested on: Mycobacterium tuberculosis lineage 3 on plate UKMYC6 (380 isolates)
[11] = tested on: Mycobacterium tuberculosis lineage 4 on plate UKMYC6 (614 isolates)
[12] = tested on: Mycobacterium tuberculosis lineage 2 on plate UKMYC6 (1563 isolates)
[13] = tested on: Mycobacterium tuberculosis lineage 2 on plate UKMYC5 (526 isolates)
[14] = tested on: Mycobacterium tuberculosis lineage 4 on plate UKMYC6 (613 isolates)
[15] = tested on: Mycobacterium tuberculosis lineage 2 on plate UKMYC6 (1559 isolates)

C[C@H]1COc2c(N3CCN(C)CC3)c(F)cc3c(=O)c(C(=O)O)cn1c23 [levofloxacin]
isolate count
Conditions | MIC: 0.25 mg/L | MIC: 0.5 mg/L | MIC: 1 mg/L | MIC: 2 mg/L | MIC: 4 mg/L | MIC: >8 mg/L | MIC: ≤0.12 mg/L | MIC: ≥8 mg/L
[1] | 31 | 104 | 13 | 1 | 2 | – | 1 | 3
[2] | 125 | 323 | 16 | 16 | 26 | 2 | 4 | 18
[3] | 158 | 214 | 6 | – | – | – | 4 | 1
[4] | 559 | 877 | 17 | 23 | 30 | – | 19 | 37
[5] | 167 | 396 | 14 | 3 | 9 | 1 | 12 | 13

NC[C@H]1O[C@H](O[C@H]2[C@H](O)[C@@H](O[C@H]3O[C@H](CO)[C@@H](O)[C@H](N)[C@H]3O)[C@H](N)C[C@@H]2N)[C@H](O)[C@@H](O)[C@@H]1O [kanamycin]
Conditions | isolate count
[1], MIC: 2 mg/L | 52 [S]
[1], MIC: 4 mg/L | 83 [S]
[1], MIC: 8 mg/L | 3 [R]
[1], MIC: ≤1 mg/L | 17 [S]
[2], MIC: 2 mg/L | 409 [S]
[2], MIC: 4 mg/L | 43 [S]
[2], MIC: 8 mg/L | 1 [R]
[2], MIC: >16 mg/L | 6 [R]
[2], MIC: ≤1 mg/L | 61 [S]
[2], MIC: ≥16 mg/L | 10 [R]
[3], MIC: 2 mg/L | 334 [S]
[3], MIC: 4 mg/L | 20 [S]
[3], MIC: ≤1 mg/L | 27 [S]
[3], MIC: ≥16 mg/L | 2 [R]
[5], MIC: 2 mg/L | 386 [S]
[5], MIC: 4 mg/L | 190 [S]
[5], MIC: 8 mg/L | 4 [R]
[5], MIC: >16 mg/L | 1 [R]
[5], MIC: ≤1 mg/L | 33 [S]
[5], MIC: ≥16 mg/L | 1 [R]
[6], MIC: 2 mg/L | 963 [S]
[6], MIC: 4 mg/L | 23 [S]
[6], MIC: 8 mg/L | 9 [R]
[6], MIC: >16 mg/L | 10 [R]
[6], MIC: ≤1 mg/L | 554 [S]
[6], MIC: ≥16 mg/L | 2 [R]
[7], MIC: 1.2 mg/L | 1950 [S]
[7], MIC: 2 mg/L | 1 [S]
[7], MIC: 2.5 mg/L | 1690 [S]
[7], MIC: 5 mg/L | 62 [R]
[7], MIC: 10 mg/L | 13 [R]
[7], MIC: 20 mg/L | 2 [R]
[7], MIC: ≤0.6 mg/L | 68 [S]
[7], MIC: ≥40 mg/L | 27 [R]
[8], MIC: 1.2 mg/L | 11 [S]
[8], MIC: 2.5 mg/L | 17 [S]
[8], MIC: 20 mg/L | 2 [R]
[8], MIC: ≥40 mg/L | 1 [R]
[9], MIC: 1.2 mg/L | 200 [S]
[9], MIC: 2.5 mg/L | 1010 [S]
[9], MIC: 5 mg/L | 371 [R]
[9], MIC: 10 mg/L | 3 [R]
[9], MIC: 20 mg/L | 1 [R]
[9], MIC: >40 mg/L | 2 [R]
[9], MIC: ≤0.6 mg/L | 17 [S]
[9], MIC: ≥40 mg/L | 7 [R]

CC(C)/N=c1\cc2n(-c3ccc(Cl)cc3)c3ccccc3nc-2cc1Nc1ccc(Cl)cc1 [clofazimine]
isolate count
Conditions | MIC: 0.06 mg/L | MIC: 0.12 mg/L | MIC: 0.25 mg/L | MIC: 0.5 mg/L | MIC: 1 mg/L | MIC: 2 mg/L | MIC: 4 mg/L | MIC: >2 mg/L | MIC: ≤0.03 mg/L | MIC: ≤0.06 mg/L
[1] | – | 41 [S] | 53 [S] | 21 [R] | 2 [R] | 1 [R] | 1 [R] | – | – | 36 [S]
[2] | 5 [S] | 148 [S] | 234 [S] | 54 [R] | 7 [R] | 6 [R] | 1 [R] | – | – | 75 [S]
[10] | 121 [S] | 229 [S] | 29 [S] | 1 [R] | – | – | – | – | – | –
[11] | 174 [S] | 370 [S] | 41 [S] | 4 [R] | – | – | – | – | 25 [S] | –
[12] | 580 [S] | 764 [S] | 113 [S] | 22 [R] | 4 [R] | – | – | 4 [R] | 75 [S] | 1 [S]

C[C@]1(COc2ccc(N3CCC(Oc4ccc(OC(F)(F)F)cc4)CC3)cc2)Cn2cc([N+](=O)[O-])nc2O1 [delamanid]
isolate count
Conditions | [1] | [10] | [13] | [14] | [15]
MIC: 0.015 mg/L | – | 215 [S] | 2 [S] | 255 [S] | 636 [S]
MIC: 0.03 mg/L | 25 [S] | 53 [S] | 40 [S] | 81 [S] | 132 [S]
MIC: 0.06 mg/L | 8 [S] | 3 [S] | 12 [S] | 10 [S] | 9 [S]
MIC: 0.12 mg/L | – | – | 1 [S] | 1 [S] | 2 [S]
MIC: 0.25 mg/L | – | – | – | 2 [R] | 3 [R]
MIC: >0.5 mg/L | – | – | – | 3 [R] | 24 [R]
MIC: >1 mg/L | – | – | 3 [R] | – | –
MIC: ≤0.008 mg/L | – | 109 [S] | – | 259 [S] | 740 [S]
MIC: ≤0.015 mg/L | 122 [S] | – | 465 [S] | – | –
MIC: ≥0.5 mg/L | – | – | – | 2 [R] | 13 [R]
MIC: ≥1 mg/L | – | – | 3 [R] | – | –
